The list shows a part of the results. The full chains were built here from the parent and the listed change. Values near 0.05 are background.
B1: TEV protease; numbered along this chain (parent)
chain: MGESLFKGPRDYNPISSSICHLTNESDGHTTSLYGIGFGPFIITNKHLFRRNNGTLVVQSLHGVFKVKDTTTLQQHLVDGRDMIIIRMPKDFPPFPQKLKFREPQREERICLVTTNFQTKSMSSMVSDTSCTFPSGDGIFWKHWIQTKDGQCGSPLVSTRDGFIVGIHSASNFTNTNNYFTSVPKNFMELLTNQEAQQWVSGWRLNADSVLWGGHKVFMVKPEEPFQPVKEATQL

Variants of: B1
Experiment: raw area under fraction-flipped curve 0-4 h after induction (AUC4h, not background-subtracted), DNA-recorder readout of cleavage of the substrate (dimensionless); higher = more cleavage of the substrate by the protease variant
Conditions: temperature: 34 °C; time window: 0-4 h after rhamnose induction
Description: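 In vivo DNA recorder in E. coli TOP10(DE3) ΔrhaA at 34 °C. Each TEVp single-site mutant (parent TEVp 0) is paired with a single-site variant of the 7-mer TEVs (canonical ENLYFQ|S). The substrate sits between flexible linkers in a Bxb1-sfGFP-TEVs-SsrA fusion, so cleavage stabilises Bxb1 and speeds flipping of a recombination array, read by NGS. The value is the raw area under the fraction-flipped curve over 0-4 h after rhamnose induction (AUC4h), with ≥20 reads per time point. It is not background-subtracted; inactive controls average about 0.047.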
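Further: Bxb1 expression induced with 0.2% (w/v) L-rhamnose at OD600 near 0.5, cultures sampled hourly, flipped fraction per protease–substrate barcode pair counted by paired-end Illumina sequencing.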

Variant	area with substrate ENLAFQS	area with substrate ENLFFQS	area with substrate ENLHFQS	area with substrate ENLNFQS	area with substrate ENLPFQS	area with substrate ENLSFQS	area with substrate ENLTFQS	area with substrate ENLVFQS	area with substrate ENLWFQS	area with substrate ENLDFQS	area with substrate ENLEFQS	area with substrate ENLIFQS	area with substrate ENLKFQS	area with substrate ENLMFQS	area with substrate ENLRFQS	area with substrate ENLCFQS	area with substrate ENLLFQS	area with substrate ENLQFQS	area with substrate ENLGFQS
D128P	0.0586	0.0979	0.074	0.0546	0.0434	0.0772	0.0684	0.115	0.0838										
T129M	0.0659			0.0612		0.0724	0.098			0.0715	0.0647	0.1	0.0743	0.0499	0.0505				
T129S	0.0533	0.083	0.0668	0.0443	0.062	0.0653			0.0674	0.069	0.061	0.0932	0.0803	0.0743	0.0705	0.089	0.075	0.0663	
T132H	0.0573			0.0318	0.0915				0.0654		0.0829	0.0609	0.0557			0.0617	0.0644	0.0642	
T132P	0.0612	0.096	0.0622	0.0675		0.06		0.0491	0.0568	0.0577	0.0612	0.058	0.0813	0.0582		0.0688	0.056		0.0549
P134I	0.0579	0.0632	0.0395	0.0672		0.0572		0.0432	0.0608	0.0432		0.0602	0.0613			0.0801	0.0538		
P134S	0.0677		0.0796		0.0555	0.0668			0.0317		0.0578		0.0667			0.0534		0.0635	
G136S	0.0387	0.066	0.0631	0.0592	0.0604	0.0512		0.0544	0.0568										
G138C	0.0737	0.0884	0.0689							0.0622								0.0553	0.07
G138D	0.0444	0.0713	0.0622	0.0657						0.061			0.0656		0.0526			0.047	
I139D	0.0775	0.0952	0.0615	0.0689		0.0678			0.0543	0.0677	0.0489	0.0649	0.0742		0.0576	0.0617	0.068	0.0726	0.0717
I139E	0.0562		0.0431		0.0508	0.0679				0.0501	0.0621	0.0766	0.0659						
F140D	0.051	0.0572	0.0621			0.0658		0.0417					0.0579			0.0629	0.0718	0.0509	0.0764
F140H	0.0789	0.088	0.0586	0.0558		0.0875			0.0647	0.0708	0.0687	0.0598	0.0683					0.0657	
W141V	0.0625	0.0666		0.0645	0.0609	0.067				0.057	0.0535		0.039		0.0542		0.0556	0.0603	
W141Y	0.0718	0.0739	0.0614	0.0593					0.0204	0.0581			0.0835				0.0724		

Variant	area with substrate ENLAFQS	area with substrate ENLFFQS	area with substrate ENLHFQS	area with substrate ENLNFQS	area with substrate ENLPFQS	area with substrate ENLSFQS	area with substrate ENLTFQS	area with substrate ENLVFQS	area with substrate ENLWFQS	area with substrate ENLDFQS	area with substrate ENLEFQS	area with substrate ENLIFQS	area with substrate ENLKFQS	area with substrate ENLMFQS	area with substrate ENLRFQS	area with substrate ENLCFQS	area with substrate ENLLFQS	area with substrate ENLQFQS	area with substrate ENLGFQS
K142C	0.0577	0.074	0.0693	0.0644	0.0586	0.0591			0.0947	0.0621	0.0709	0.0776			0.0979		0.0579	0.0921	0.0619
K142Q	0.0623	0.0795			0.0631	0.0577			0.0742	0.074	0.0584	0.0846	0.066		0.0693			0.0496	
H143T	0.0635	0.0843		0.0659	0.0587	0.0713	0.0597	0.0667	0.066	0.056	0.0633	0.0535	0.0684				0.0608		0.0704
T147C	0.0651				0.0922	0.0663					0.0982								
T147L	0.0593	0.0719		0.0677	0.0439	0.0624		0.0692	0.0686	0.0743	0.0608	0.0527	0.0667		0.0621		0.0593	0.0784	0.094
K148D	0.0586		0.066	0.056	0.0528	0.0659			0.0657	0.0628	0.0676	0.0667	0.0587		0.0506	0.0763	0.0653	0.0691	
K148Y	0.0551	0.105	0.0695	0.071	0.0664	0.073			0.108	0.0695	0.0547					0.0712			0.0629
D149H	0.054	0.0559		0.0576	0.0718	0.0598		0.1				0.0804	0.0729						
Q151A	0.0589	0.0755	0.0982		0.0647	0.0413		0.076		0.0821					0.0609	0.0614	0.0629	0.0613	
Q151R	0.0647	0.0666	0.0685	0.0584	0.0647		0.059	0.0506			0.0596			0.0711	0.0663		0.0693		0.0728
G153W	0.0681	0.059			0.0622					0.0656						0.0515			
V157Y	0.0548	0.0679	0.0634	0.0487	0.0584			0.0448		0.0567	0.0578	0.061	0.0694		0.0747			0.0583	0.0742
T159R	0.0487		0.0657	0.0702		0.0702	0.0499			0.0564						0.0972	0.0589		
D161E	0.0527	0.0747	0.073	0.066	0.0512	0.0556	0.0738	0.0717	0.0535	0.0545	0.0481	0.0576	0.0614	0.062	0.0674	0.0644	0.0664	0.0522	0.0585
I164R	0.0611	0.0847	0.045	0.063		0.0571		0.052	0.0467	0.061	0.0547		0.0652		0.0544	0.0521		0.055	

From the supplement of paper PMC12217912
